Measurements as given in patent publication US12209142B2, “SARS-CoV-2 epitope-targeted peptide immunostimulants” (Institute for Systems Biology, priority 2020, dated 2025).
Bridges are numbered along the chain shown (N, C = ends). Where no end group is shown, it is not given here. [ ]: non-standard residue; d: D form. Lys(N3) = [N-]=[N+]=NCCCC[C@H](N)C(=O)O; Pra = C#CC[C@H](N)C(=O)O

System: MrkA-expressing K. pneumoniae cells
Assay: Whole-cell ELISA of biotinylated PCC binding
Conditions: biotinylated PCC at 5 μM

cy(LLFFA): control compound differing from cy(LLFFF) by a single phenyl moiety ([Lys(N3)]LLFFA[Pra]; triazole 1-7)
whole-cell ELISA signal, K. pneumoniae BAA 1705 and BAA 2146: low signals that were comparable to secondary antibody controls
